Some of the results follow. The list includes weakly bound sequences.
Each sequence was assayed against T1, MBP-FoxP3dN (UniProt Q99JB6) (assay: PD-seq (MBP pull-down with sequencing)). Details: 20 mM Tris-HCl pH 7.5, 100 mM NaCl, 1.5 mM MgCl2, 0.4 uM protein, 0.1 uM dsDNA library, 30 min, room temperature, amylose pull-down; high values mean tight binding; double strand, one strand shown.
T1 sequence: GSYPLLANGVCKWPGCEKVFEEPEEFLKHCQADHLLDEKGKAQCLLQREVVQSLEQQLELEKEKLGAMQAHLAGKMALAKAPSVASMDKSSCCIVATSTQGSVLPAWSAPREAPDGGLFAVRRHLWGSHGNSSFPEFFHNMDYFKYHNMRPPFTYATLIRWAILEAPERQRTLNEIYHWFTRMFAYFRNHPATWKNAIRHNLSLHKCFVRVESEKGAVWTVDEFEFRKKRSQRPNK

Sequence | binding signal (RPM ratio (pull-down/input))
GATGATTGTTCTCCCAGCTGATGAATTTCCGGTTTCGAGTAAACAAATTTTCCTAATCTTTCTGTTCAAGCGCCATCTAC | 0.366
GATGATTGTTCTCCCAGCTGATGAATTTAGTGGCTCGAGTAAACAAATTTTCCTAATCTTTCTGTTCAAGCGCCATCTAC | 1.02
GATGATTGTTCTCCCAGCTGATGAATTCTTGCTGTCGAGTAAACAAATTTTCCTAATCTTTCTGTTCAAGCGCCATCTAC | 0.508
GATGATTGTTCTCCCAGCTGATGAATTAATGATATCGAGTAAACAAATTTTCCTAATCTTTCTGTTCAAGCGCCATCTAC | 0.583
GATGATTGTTCTCCCAGCTGATGAATTGGCCCCTTCGAGTAAACAAATTTTCCTAATCTTTCTGTTCAAGCGCCATCTAC | 0.305
GATGATTGTTCTCCCAGCTGATGAATTTTATATCTCGAGTAAACAAATTTTCCTAATCTTTCTGTTCAAGCGCCATCTAC | 0.767
GATGATTGTTCTCCCAGCTGATGAATTATGGCCCTCGAGTAAACAAATTTTCCTAATCTTTCTGTTCAAGCGCCATCTAC | 0.687
GATGATTGTTCTCCCAGCTGATGAATTTGCCATCTCGAGTAAACAAATTTTCCTAATCTTTCTGTTCAAGCGCCATCTAC | 2.56
GATGATTGTTCTCCCAGCTGATGAATTACTATTATCGAGTAAACAAATTTTCCTAATCTTTCTGTTCAAGCGCCATCTAC | 0.758
GATGATTGTTCTCCCAGCTGATGAATTAGGCGTGTCGAGTAAACAAATTTTCCTAATCTTTCTGTTCAAGCGCCATCTAC | 3.3
GATGATTGTTCTCCCAGCTGATGAATTGGATGTATCGAGTAAACAAATTTTCCTAATCTTTCTGTTCAAGCGCCATCTAC | 1.42
GATGATTGTTCTCCCAGCTGATGAATTCTCGCTATCGAGTAAACAAATTTTCCTAATCTTTCTGTTCAAGCGCCATCTAC | 0.593
GATGATTGTTCTCCCAGCTGATGAATTAACGCCATCGAGTAAACAAATTTTCCTAATCTTTCTGTTCAAGCGCCATCTAC | 2.15
GATGATTGTTCTCCCAGCTGATGAATTGCGTATATCGAGTAAACAAATTTTCCTAATCTTTCTGTTCAAGCGCCATCTAC | 2.34
GATGATTGTTCTCCCAGCTGATGAATTGTAAGTCTCGAGTAAACAAATTTTCCTAATCTTTCTGTTCAAGCGCCATCTAC | 0.647
GATGATTGTTCTCCCAGCTGATGAATTGGTATATTCGAGTAAACAAATTTTCCTAATCTTTCTGTTCAAGCGCCATCTAC | 2.34
GATGATTGTTCTCCCAGCTGATGAATTACGCAGTTCGAGTAAACAAATTTTCCTAATCTTTCTGTTCAAGCGCCATCTAC | 1.3
GATGATTGTTCTCCCAGCTGATGAATTAGGCGTTTCGAGTAAACAAATTTTCCTAATCTTTCTGTTCAAGCGCCATCTAC | 2.84

— publication PMC12820563
